Assay results: ChEMBL document CHEMBL4888484, “Replenishing the malaria drug discovery pipeline: Screening and hit evaluation of the MMV Hit Generation Library 1 (HGL1) against asexual blood stage Plasmodium falciparum ,using a nano luciferase reporter read-out” (2022)
Screen size: about 150,000 compounds; about 540 (0.36%) showed an effect of 50% or more. Some of the results follow.

Test system: Plasmodium falciparum
Assay: Primary screen in NF54 nanoGlo assay, in single point, at 2uM, 72h; a lower Z score goes with more inhibition
Assay type: functional, Erythrocyte
Conditions: timepoint 72 hour

| Compound | % Inhibition [%] | Z score |
| --- | --- | --- |
| CC(C)c1nccn1CCc1cnn(-c2ccccc2)c1 | -16 | 1.92 |
| O=C(Cc1ccsc1)NC(c1ccccn1)[C@H]1C[C@@H](O)C1 (stereo partly specified) | -3 | 0.4 |
| O=C(Nc1ccc(F)cc1F)OCC(F)(F)F | -5 | 0.64 |
| O=S(=O)(Cc1ccccc1)N1CCC(OCCOc2ccc(F)cc2)CC1 | 42 | -6.01 |
| Cc1nc(NC(=O)[C@H](C)N(C)c2ccn(C)n2)sc1C | -4 | 0.68 |
| C[C@H]1CCCN(CC2CCN(S(=O)(=O)Cc3ccccc3)CC2)C1 | -5 | 0.73 |
| CN1C(=O)C[C@H](NC(=O)Cc2cccc(O)c2)[C@H]1c1cccnc1 | -7 | 1.34 |
| Cc1nc(-c2ccccc2NC(=O)c2cccc(Cl)c2)cs1 | -16 | 3.23 |
| CC(C)n1cnnc1CN(C)C(=O)c1cccc(-c2ccccc2CO)c1 | -3 | 0.57 |
| Cc1ccc2nc(N3CCC(C(=O)N4CCN(C(=O)c5ccco5)CC4)CC3)[nH]c2c1 | 11 | -1.89 |
| COc1cccc(N2CCN(C(=O)[C@H]3CC(C)(C)OC3(C)C)CC2)c1 | -2 | 0.46 |
| O=C(NCc1ccco1)c1cccc(Nc2c(Oc3ccccc3)cnn(-c3ccc(Cl)cc3)c2=O)c1 | -9 | 1.09 |
| COCc1cc(CN2CCC[C@](C)(OC)C2)no1 | -4 | 0.7 |
| CC(C)c1cc(-c2nc(-c3cn4ccccc4n3)no2)on1 | -3 | 0.46 |
| Cc1cn2c(-c3nc(CC(C)C)n[nH]3)csc2n1 | -4 | 0.69 |
| COc1ccccc1[C@H](CNc1ncnc2sccc12)N1CCCC1 | -4 | 0.48 |
| O=S1(=O)N=C(N[C@H]2CCN(CC3CC3)C2)c2ccccc21 | -10 | 1.42 |
| COCc1cccc(CC(=O)N2CCOc3cccc(F)c32)c1 | -9 | 1.09 |
| CC(=O)N1CCN(CC(=O)N2N=C(c3ccc(C)cc3)C[C@H]2c2cccc(F)c2)CC1 | -6 | 1.08 |
| CC(C)[C@H]1CN(Cc2cc(C(N)=O)oc2C(C)(C)C)C[C@@H]1NC(=O)N(C)C | -3 | 0.45 |
| CN(C[C@](C)(O)c1ccccc1)C(=O)c1cc2c(o1)CCCC2 | 10 | -1.32 |
| CC(C)(C)CN(CC(F)(F)F)C(=O)CN1C(=O)NC(C)(C)C1=O | -8 | 1.49 |
| Cc1cnc(C(=O)OC2CC3CC(C2C)C3(C)C)cn1 (stereo unspecified) | -2 | 0.17 |
